Our source for the binding values is publication PMC11549776.

Sequences of proteins named here, by UniProt entry; tags and fusion partners are left off. A change or cut given only in a name is not applied to a line headed by its entry.
UniProt Q13315: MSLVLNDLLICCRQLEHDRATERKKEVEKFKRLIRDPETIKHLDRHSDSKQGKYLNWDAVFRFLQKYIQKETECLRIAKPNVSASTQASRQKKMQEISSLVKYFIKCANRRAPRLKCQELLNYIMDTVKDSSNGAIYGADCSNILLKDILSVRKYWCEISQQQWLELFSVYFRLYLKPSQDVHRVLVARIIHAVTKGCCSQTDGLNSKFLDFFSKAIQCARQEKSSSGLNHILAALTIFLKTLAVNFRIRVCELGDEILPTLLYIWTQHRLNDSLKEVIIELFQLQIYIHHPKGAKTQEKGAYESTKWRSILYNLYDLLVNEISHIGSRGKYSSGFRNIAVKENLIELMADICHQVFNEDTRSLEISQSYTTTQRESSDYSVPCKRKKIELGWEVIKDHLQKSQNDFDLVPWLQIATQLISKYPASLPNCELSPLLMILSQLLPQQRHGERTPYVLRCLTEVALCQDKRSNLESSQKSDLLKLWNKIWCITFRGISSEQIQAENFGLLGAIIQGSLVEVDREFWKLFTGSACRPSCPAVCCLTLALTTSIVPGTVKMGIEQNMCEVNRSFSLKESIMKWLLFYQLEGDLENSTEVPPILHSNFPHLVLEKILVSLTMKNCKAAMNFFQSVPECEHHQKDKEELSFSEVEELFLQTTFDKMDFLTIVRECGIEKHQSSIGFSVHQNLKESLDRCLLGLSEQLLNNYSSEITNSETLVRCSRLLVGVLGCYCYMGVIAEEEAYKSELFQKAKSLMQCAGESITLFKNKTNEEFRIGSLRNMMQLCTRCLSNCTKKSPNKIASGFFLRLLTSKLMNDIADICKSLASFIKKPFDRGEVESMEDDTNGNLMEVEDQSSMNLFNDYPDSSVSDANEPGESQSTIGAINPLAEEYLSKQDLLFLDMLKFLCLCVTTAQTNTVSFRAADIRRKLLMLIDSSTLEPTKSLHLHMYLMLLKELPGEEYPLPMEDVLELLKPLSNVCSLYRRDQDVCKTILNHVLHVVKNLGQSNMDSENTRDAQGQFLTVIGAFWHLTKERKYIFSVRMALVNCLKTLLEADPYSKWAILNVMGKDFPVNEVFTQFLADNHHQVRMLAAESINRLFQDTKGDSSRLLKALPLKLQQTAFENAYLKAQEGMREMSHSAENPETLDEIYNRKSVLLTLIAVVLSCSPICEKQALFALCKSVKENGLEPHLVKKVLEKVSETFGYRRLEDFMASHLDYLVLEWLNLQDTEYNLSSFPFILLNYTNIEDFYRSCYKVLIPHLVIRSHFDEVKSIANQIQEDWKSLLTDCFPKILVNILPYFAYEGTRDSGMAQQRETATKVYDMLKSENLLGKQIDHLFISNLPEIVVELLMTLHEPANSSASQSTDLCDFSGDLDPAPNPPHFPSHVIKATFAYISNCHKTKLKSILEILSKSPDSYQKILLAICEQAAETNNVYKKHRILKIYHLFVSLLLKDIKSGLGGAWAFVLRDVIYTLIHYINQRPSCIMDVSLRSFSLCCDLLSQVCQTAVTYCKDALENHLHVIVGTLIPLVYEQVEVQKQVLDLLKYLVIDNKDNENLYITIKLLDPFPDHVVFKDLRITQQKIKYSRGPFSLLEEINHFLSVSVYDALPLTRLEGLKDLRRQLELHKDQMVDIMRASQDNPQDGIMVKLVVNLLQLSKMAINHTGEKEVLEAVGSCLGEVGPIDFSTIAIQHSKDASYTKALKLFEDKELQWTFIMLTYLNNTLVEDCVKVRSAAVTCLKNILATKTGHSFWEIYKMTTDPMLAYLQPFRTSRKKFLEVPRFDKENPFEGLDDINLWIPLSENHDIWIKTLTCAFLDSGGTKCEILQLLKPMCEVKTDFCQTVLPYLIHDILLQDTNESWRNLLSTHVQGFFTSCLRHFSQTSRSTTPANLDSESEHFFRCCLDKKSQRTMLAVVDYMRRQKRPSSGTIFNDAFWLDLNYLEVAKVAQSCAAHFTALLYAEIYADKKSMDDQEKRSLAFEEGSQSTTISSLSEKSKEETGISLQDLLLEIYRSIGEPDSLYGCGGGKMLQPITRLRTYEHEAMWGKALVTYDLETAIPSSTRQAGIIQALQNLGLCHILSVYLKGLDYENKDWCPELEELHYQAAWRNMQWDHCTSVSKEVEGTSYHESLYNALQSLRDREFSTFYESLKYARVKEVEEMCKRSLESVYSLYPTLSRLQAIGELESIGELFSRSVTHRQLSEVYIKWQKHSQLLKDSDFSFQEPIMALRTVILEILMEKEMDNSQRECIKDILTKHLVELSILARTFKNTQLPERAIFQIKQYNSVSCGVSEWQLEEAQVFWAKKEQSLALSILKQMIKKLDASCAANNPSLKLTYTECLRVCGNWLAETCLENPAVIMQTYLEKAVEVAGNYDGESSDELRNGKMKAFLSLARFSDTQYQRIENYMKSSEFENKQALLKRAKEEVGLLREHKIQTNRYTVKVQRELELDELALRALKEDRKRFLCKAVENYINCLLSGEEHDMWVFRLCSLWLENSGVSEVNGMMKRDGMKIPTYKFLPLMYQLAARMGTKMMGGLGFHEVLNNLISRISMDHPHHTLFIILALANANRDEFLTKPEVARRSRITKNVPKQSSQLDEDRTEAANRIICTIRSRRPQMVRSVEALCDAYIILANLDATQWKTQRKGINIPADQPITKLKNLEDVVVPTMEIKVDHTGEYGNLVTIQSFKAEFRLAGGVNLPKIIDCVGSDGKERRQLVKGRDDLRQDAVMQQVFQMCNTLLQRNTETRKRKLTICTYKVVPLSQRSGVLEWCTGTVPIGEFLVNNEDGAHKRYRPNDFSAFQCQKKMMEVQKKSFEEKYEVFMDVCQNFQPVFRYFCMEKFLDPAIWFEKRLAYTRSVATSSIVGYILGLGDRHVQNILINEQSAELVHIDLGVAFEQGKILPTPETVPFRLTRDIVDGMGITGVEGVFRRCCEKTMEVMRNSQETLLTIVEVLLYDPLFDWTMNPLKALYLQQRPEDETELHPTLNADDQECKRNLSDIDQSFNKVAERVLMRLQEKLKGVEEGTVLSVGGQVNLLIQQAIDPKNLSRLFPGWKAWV

Test [1] deals with ATM (ataxia telangiectasia mutated), endogenous (human (endogenous in HIEC-6)) (UniProt Q13315). Put plainly: proximity ligation; Duolink In Situ Red Mouse/Rabbit kit on fixed, permeabilised HIEC-6 cells; endogenous ATM and USP15.
The target is the same in test [2]. Put plainly: co-IP; reciprocal co-IP from HIEC-6 cell lysates, indicated antibodies at 4 °C overnight, protein A/G, immunoblot. In general terms: A western blot detects proteins with antibodies after separation by electrophoresis.
For test [3], the target named is Myc-ATM (ataxia telangiectasia mutated) (UniProt Q13315). In words: co-IP; HEK293T cells expressing Flag-USP15 WT or C298A and Myc-ATM; anti-Flag and anti-Myc antibodies.
A further test concerns the target GST-ATM (UniProt Q13315). In words: pull-down; bacterially expressed GST or GST-ATM incubated with Flag-USP15 WT or C298A lysed from HEK293T cells; GST Protein Interaction Pull-Down Kit; analysed by Coomassie Brilliant Blue; only the target purified.
Test [4] concerns the target Myc-ATM (ataxia telangiectasia mutated) (UniProt Q13315). In words: co-IP; ATM expressed together with USP15 or its truncated mutants; cell line not stated.

Results are given in words; binding and its absence hold for the method and conditions named. In cells and extracts the contact can be indirect. Some binding calls cover weakened binding; strength is not graded here. For some assays here: Where a sequence is shown, tags or fusion partners need not be part of it.

B1: USP15 (ubiquitin-specific protease 15), endogenous (enzyme, UniProt Q9Y4E8 1-981)
chain: MAEGGAADLDTQRSDIATLLKTSLRKGDTWYLVDSRWFKQWKKYVGFDSWDKYQMGDQNVYPGPIDNSGLLKDGDAQSLKEHLIDELDYILLPTEGWNKLVSWYTLMEGQEPIARKVVEQGMFVKHCKVEVYLTELKLCENGNMNNVVTRRFSKADTIDTIEKEIRKIFSIPDEKETRLWNKYMSNTFEPLNKPDSTIQDAGLYQGQVLVIEQKNEDGTWPRGPSTPKSPGASNFSTLPKISPSSLSNNYNNMNNRNVKNSNYCLPSYTAYKNYDYSEPGRNNEQPGLCGLSNLGNTCFMNSAIQCLSNTPPLTEYFLNDKYQEELNFDNPLGMRGEIAKSYAELIKQMWSGKFSYVTPRAFKTQVGRFAPQFSGYQQQDCQELLAFLLDGLHEDLNRIRKKPYIQLKDADGRPDKVVAEEAWENHLKRNDSIIVDIFHGLFKSTLVCPECAKISVTFDPFCYLTLPLPMKKERTLEVYLVRMDPLTKPMQYKVVVPKIGNILDLCTALSALSGIPADKMIVTDIYNHRFHRIFAMDENLSSIMERDDIYVFEININRTEDTEHVIIPVCLREKFRHSSYTHHTGSSLFGQPFLMAVPRNNTEDKLYNLLLLRMCRYVKISTETEETEGSLHCCKDQNINGNGPNGIHEEGSPSEMETDEPDDESSQDQELPSENENSQSEDSVGGDNDSENGLCTEDTCKGQLTGHKKRLFTFQFNNLGNTDINYIKDDTRHIRFDDRQLRLDERSFLALDWDPDLKKRYFDENAAEDFEKHESVEYKPPKKPFVKLKDCIELFTTKEKLGAEDPWYCPNCKEHQQATKKLDLWSLPPVLVVHLKRFSYSRYMRDKLDTLVDFPINDLDMSEFLINPNAGPCRYNLIAVSNHYGGMGGGHYTAFAKNKDDGKWYYFDDSSVSTASEDQIVSKAAYVLFYQRQDTFSGTGFFPLDRETKGASAATGIPLESDEDSNDNDNDIENENCMHTN
Take B1: the binding entry in test [1] and in test [2] was “binds” throughout.

B2: Flag-USP15 wild-type (ubiquitin-specific protease 15) (enzyme, UniProt Q9Y4E8 1-981)
chain: MAEGGAADLDTQRSDIATLLKTSLRKGDTWYLVDSRWFKQWKKYVGFDSWDKYQMGDQNVYPGPIDNSGLLKDGDAQSLKEHLIDELDYILLPTEGWNKLVSWYTLMEGQEPIARKVVEQGMFVKHCKVEVYLTELKLCENGNMNNVVTRRFSKADTIDTIEKEIRKIFSIPDEKETRLWNKYMSNTFEPLNKPDSTIQDAGLYQGQVLVIEQKNEDGTWPRGPSTPKSPGASNFSTLPKISPSSLSNNYNNMNNRNVKNSNYCLPSYTAYKNYDYSEPGRNNEQPGLCGLSNLGNTCFMNSAIQCLSNTPPLTEYFLNDKYQEELNFDNPLGMRGEIAKSYAELIKQMWSGKFSYVTPRAFKTQVGRFAPQFSGYQQQDCQELLAFLLDGLHEDLNRIRKKPYIQLKDADGRPDKVVAEEAWENHLKRNDSIIVDIFHGLFKSTLVCPECAKISVTFDPFCYLTLPLPMKKERTLEVYLVRMDPLTKPMQYKVVVPKIGNILDLCTALSALSGIPADKMIVTDIYNHRFHRIFAMDENLSSIMERDDIYVFEININRTEDTEHVIIPVCLREKFRHSSYTHHTGSSLFGQPFLMAVPRNNTEDKLYNLLLLRMCRYVKISTETEETEGSLHCCKDQNINGNGPNGIHEEGSPSEMETDEPDDESSQDQELPSENENSQSEDSVGGDNDSENGLCTEDTCKGQLTGHKKRLFTFQFNNLGNTDINYIKDDTRHIRFDDRQLRLDERSFLALDWDPDLKKRYFDENAAEDFEKHESVEYKPPKKPFVKLKDCIELFTTKEKLGAEDPWYCPNCKEHQQATKKLDLWSLPPVLVVHLKRFSYSRYMRDKLDTLVDFPINDLDMSEFLINPNAGPCRYNLIAVSNHYGGMGGGHYTAFAKNKDDGKWYYFDDSSVSTASEDQIVSKAAYVLFYQRQDTFSGTGFFPLDRETKGASAATGIPLESDEDSNDNDNDIENENCMHTN
As for B2, the binding entry (in test [3]; with GST-ATM; in test [4]) was “binds” each time.

B3: Flag-USP15 C298A mutant (catalytically inactive mutant of USP15) (enzyme, UniProt Q9Y4E8 1-981)
chain: MAEGGAADLDTQRSDIATLLKTSLRKGDTWYLVDSRWFKQWKKYVGFDSWDKYQMGDQNVYPGPIDNSGLLKDGDAQSLKEHLIDELDYILLPTEGWNKLVSWYTLMEGQEPIARKVVEQGMFVKHCKVEVYLTELKLCENGNMNNVVTRRFSKADTIDTIEKEIRKIFSIPDEKETRLWNKYMSNTFEPLNKPDSTIQDAGLYQGQVLVIEQKNEDGTWPRGPSTPKSPGASNFSTLPKISPSSLSNNYNNMNNRNVKNSNYCLPSYTAYKNYDYSEPGRNNEQPGLCGLSNLGNTAFMNSAIQCLSNTPPLTEYFLNDKYQEELNFDNPLGMRGEIAKSYAELIKQMWSGKFSYVTPRAFKTQVGRFAPQFSGYQQQDCQELLAFLLDGLHEDLNRIRKKPYIQLKDADGRPDKVVAEEAWENHLKRNDSIIVDIFHGLFKSTLVCPECAKISVTFDPFCYLTLPLPMKKERTLEVYLVRMDPLTKPMQYKVVVPKIGNILDLCTALSALSGIPADKMIVTDIYNHRFHRIFAMDENLSSIMERDDIYVFEININRTEDTEHVIIPVCLREKFRHSSYTHHTGSSLFGQPFLMAVPRNNTEDKLYNLLLLRMCRYVKISTETEETEGSLHCCKDQNINGNGPNGIHEEGSPSEMETDEPDDESSQDQELPSENENSQSEDSVGGDNDSENGLCTEDTCKGQLTGHKKRLFTFQFNNLGNTDINYIKDDTRHIRFDDRQLRLDERSFLALDWDPDLKKRYFDENAAEDFEKHESVEYKPPKKPFVKLKDCIELFTTKEKLGAEDPWYCPNCKEHQQATKKLDLWSLPPVLVVHLKRFSYSRYMRDKLDTLVDFPINDLDMSEFLINPNAGPCRYNLIAVSNHYGGMGGGHYTAFAKNKDDGKWYYFDDSSVSTASEDQIVSKAAYVLFYQRQDTFSGTGFFPLDRETKGASAATGIPLESDEDSNDNDNDIENENCMHTN
For B3, the binding result (in test [3]; in the test with GST-ATM) was “binds” each time.

B4: USP15 D3 deletion mutant (deletion residues 740–981) (domain or fragment, UniProt Q9Y4E8 1-739)
chain: MAEGGAADLDTQRSDIATLLKTSLRKGDTWYLVDSRWFKQWKKYVGFDSWDKYQMGDQNVYPGPIDNSGLLKDGDAQSLKEHLIDELDYILLPTEGWNKLVSWYTLMEGQEPIARKVVEQGMFVKHCKVEVYLTELKLCENGNMNNVVTRRFSKADTIDTIEKEIRKIFSIPDEKETRLWNKYMSNTFEPLNKPDSTIQDAGLYQGQVLVIEQKNEDGTWPRGPSTPKSPGASNFSTLPKISPSSLSNNYNNMNNRNVKNSNYCLPSYTAYKNYDYSEPGRNNEQPGLCGLSNLGNTCFMNSAIQCLSNTPPLTEYFLNDKYQEELNFDNPLGMRGEIAKSYAELIKQMWSGKFSYVTPRAFKTQVGRFAPQFSGYQQQDCQELLAFLLDGLHEDLNRIRKKPYIQLKDADGRPDKVVAEEAWENHLKRNDSIIVDIFHGLFKSTLVCPECAKISVTFDPFCYLTLPLPMKKERTLEVYLVRMDPLTKPMQYKVVVPKIGNILDLCTALSALSGIPADKMIVTDIYNHRFHRIFAMDENLSSIMERDDIYVFEININRTEDTEHVIIPVCLREKFRHSSYTHHTGSSLFGQPFLMAVPRNNTEDKLYNLLLLRMCRYVKISTETEETEGSLHCCKDQNINGNGPNGIHEEGSPSEMETDEPDDESSQDQELPSENENSQSEDSVGGDNDSENGLCTEDTCKGQLTGHKKRLFTFQFNNLGNTDINYIKDDTRHIRFDDR
As for B4, the binding entry in test [4] was “no binding”.
